“Also recorded” adds a separate entry of the source.
What was measured:
Format in all cases: cell-based
[1] = target: T1, mutant (A53T) α-synuclein (Homo sapiens, UniProt P37840, A53T); test: Immunoblot of total α-synuclein in lysates of transfected HEK293 cells; conditions: for Total α-synuclein: HEK293, Mutant (A53T), normalized to the wildtype alone control
T1 construct: expressed in transfected cells; host or cells: HEK293
Description: (§1) FIG. 3A: Wild type (WT) α-synuclein (Syn(WT): bars 1-3) or mutant α-synuclein (Syn(A53T): bars 4-6) was expressed alone or with a Flag epitope-tagged fusion protein comprising the J-domain DnaJB1 and a α-synuclein-binding domain (J-SynBP1: bars 2 and 5) or a control fusion protein construct comprising a mutated J-domain (containing a P33Q substitution) and a α-synuclein-binding peptide (J(MT)-SynBP1: bars 3 and 6) in HEK293 cells. Two days later, cells were homogenized in Tris buffer (10 mM Tris, pH7.4, 140 mM NaCl, 1 mM EDTA supplemented with protease inhibitor cocktail). Aggregation of mutant α-synuclein levels were quantified with sandwich ELISA, in which aggregated α-synuclein proteins were captured by coated-Syn-O4 antibody, followed by detection with HRP-conjugated anti-α-synuclein antibody (BioLegend: A15115A). FIG. 3B Lysates were prepared from HEK293 cells transiently transfected with wildtype Syn(WT) (lanes 1-3) or mutant Syn(A53T) (lane 4-6) alone or co-expressed with the fusion protein constructs. After brief sonication, the cell lysate was subjected to SDS-PAGE/immuno blotting with anti-α-synuclein antibody (Ab-2: top panel), Flag antibody (middle panel) or anti-Tubulin antibody (bottom panel).
Cells were transfected with either wildtype (lane 2) or mutant (lanes 3-8) α-synuclein, and also transfected with the JB1-SynBP1 fusion protein (lanes 4-8). Cells were also treated with either Bafilomycin A1, an inhibitor of late phase autophagy (10 nM and 100 nM in lanes 5 and 6, respectively), or MG132, a proteasome inhibitor (0.1 μM and 1 μM in lanes 7 and 8, respectively). Cell lysates were probed with anti-synuclein antibodies.
(§2) Expression vector plasmids encoding various protein constructs were transfected into HEK293 cells with Lipofectamine 3000 transfection reagent (Thermo Fisher Scientific). Cell lysates were analyzed for expressed proteins using immunoblot assays. Samples of culture media were centrifuged to remove debris prior to analysis. Cells were lysed in a lysis buffer (10 mM Tris-HCl, pH 8.0, 150 mM NaCl, 10 mM EDTA, 2% SDS) containing 2 mM PMSF and protease cocktail (Complete Protease Inhibitor Cocktail; Sigma). After brief sonication, the samples were analyzed for expressed proteins using immunoblot assays. For immunoblot analysis, samples were boiled in an SDS-sample buffer and run on polyacrylamide electrophoresis. Thereafter, the separated protein bands were transferred to a PVDF membrane.
Expressed proteins were detected using a chemiluminescent signal. Briefly, blots were reacted with a primary antibody capable of binding the particular epitope (e.g., anti-α-synuclein antibody). After rinsing away the unreacted primary antibody, a secondary, enzyme-linked antibody (e.g., HRP-linked anti-IgG antibody) was allowed to react with the primary antibody molecules bound to the blots. Following rinsing, a chemiluminescent reagent was added, and the resultant chemiluminescent signals in the blots were captured on X-ray film.
Expression vector plasmids encoding various protein constructs were transfected into HEK293 cells with Lipofectamine 3000 transfection reagent (Thermo Fisher Scientific). One day after transfection, culture medium was replaced with fresh medium containing bafilomycin al (BFA) or MG132, and cells were incubated for additional 48 hours. Cells were lysed in lysis buffer (20 mM Tris, pH 7.4, 150 mM NaCl, 1 mM EDTA, 0.1% NP-40) supplemented with protease inhibitor cocktail (Complete Protease Inhibitor Cocktail; Sigma) and 2 mM PMSF. After brief sonication, cell lysates were analyzed in ELISA or immunoblotting assay.

wildtype α-synuclein [2] = target: T2, wildtype α-synuclein (Homo sapiens, UniProt P37840); test: as above; conditions: wildtype Syn(WT), lanes 1-3
T2 construct: expressed in transfected cells; host or cells: HEK293
Description: as §1, with “FIG. 3B Lysates were prepared from HEK293 cells transiently transfected with wildtype Syn(WT) (lanes 1-3) or mutant Syn(A53T) (lane 4-6) alone or co-expressed with the fusion protein constructs. After brief sonication, the cell lysate was subjected to SDS-PAGE/immuno blotting with anti-α-synuclein antibody (Ab-2: top panel), Flag antibody (middle panel) or anti-Tubulin antibody (bottom panel).” left out
Expression vector plasmids encoding various protein constructs were transfected into HEK293 cells with Lipofectamine 3000 transfection reagent (Thermo Fisher Scientific). Cell lysates were analyzed for expressed proteins using immunoblot assays. […] After brief sonication, the samples were analyzed for expressed proteins using immunoblot assays. […]
Expressed proteins were detected using a chemiluminescent signal. […]

[3] = target: T1, mutant (A53T) α-synuclein; test: ELISA of α-synuclein secreted into culture media; conditions: cells expressing mutant (A53T) α-synuclein, bar 5
Excerpt: (§3) Transfection of cells with wildtype (bar 2) or mutant (A53T; bar 4) α-synuclein alone results in secretion of the synucleins as detectable by ELISA. Co-expression with the fusion protein construct comprising either a normal (bar 3) or mutated J-domain (containing a P33Q substitution; bar 5) results in the elimination of detectable levels of secreted α-synuclein.
as §2
(§4) α-synuclein is known to be secreted. We therefore investigated whether the fusion protein constructs were effective in reducing the amount of secreted α-synuclein.

wildtype α-synuclein [4] = target: T2, wildtype α-synuclein; test: ELISA of α-synuclein secreted into culture media; conditions: cells expressing wildtype α-synuclein, bar 3
Excerpt: as §3, §2, §4

[5] = target: T3, mutant (A53T) α-synuclein phosphorylated at Ser129 (Homo sapiens, UniProt P37840, A53T); test: Level of phosphorylated α-synuclein (Ser129) on co-expression of fusion protein constructs; conditions: Table 13, wildtype alone = 100%, mutant alone = 92.1%
T3 construct: expressed in transfected cells

U87-MG glioma cells = test: LDH activity in culture medium (LDH-Cytox Assay Kit), α-synuclein-mediated cytotoxicity; conditions: lentivirus infection, medium collected at 7-day after infection, listed as JB1-SynBP1
Description: U87MG cells were infected with lentivirus to express either wildtype (“SynWT”) or mutant (“SynA53T”) α-synuclein protein, either alone or with the JB1-SynBP1 construct. The culture medium was collected from U87-MG cells at 7-day after infection. Lactate dehydrogenase (LDH) activity in culture medium was measured by LDH-Cytox™ Assay Kit (BioLegend), and expressed as values relative to LDH levels in cells expressing SynWT alone.
Finally, experiments were conducted to determine whether expression of various fusion protein constructs are able to ameliorate cytotoxicity by expression of mutant (A53T) α-synuclein.

B1: Construct 1: J domain from human DnaJB1 fused to 4XGGGGS linker, in turn, fused on its C-terminus to SynBP1 (protein)
chain: MGKDYYQTLGLARGASDEEIKRAYRRQALRYHPDKNKEPGAEEKFKEIAEAYDVLSDPRKREIFDRYGEEGLKGSDIGGGGSGGGGSGGGGSGGGGSAAAKDGIVNGVKA
modifications: JB1-SynBP1
notes: J domain from human DnaJB1 fused to 4XGGGGS linker, in turn, fused on its C-terminus to SynBP1
Total α-synuclein ([1]; inhibitor BFA 10 nM, 48 hours): 104.1% | Total α-synuclein ([1]; inhibitor BFA 100 nM, 48 hours): 123.9% | Total α-synuclein ([1]; inhibitor MG132 0.1 μM, 48 hours): 86.9% | Total α-synuclein ([1]; inhibitor MG132 1 μM, 48 hours): 60.0% | Total α-synuclein ([1]; no inhibitor): 99% | Total α-synuclein ([1]; no inhibitor, listed as JB1-SynBP1): 99.0% | overall level of α-synuclein (FIG. 3B, Western blot) ([1]; HEK293 cells, mutant Syn(A53T), lanes 4-6): relatively similar levels | overall level of α-synuclein (FIG. 3B, Western blot) (wildtype α-synuclein [2]): relatively similar levels | α-synuclein secreted into the culture media (FIG. 4) [3]: no detectable | α-synuclein secreted into the culture media (FIG. 4) (wildtype α-synuclein [4]): no detectable | Phosphorylated α-synuclein [5]: 51.3% | cytotoxic effect of α-synuclein (LDH activity in culture medium, FIG. 7) (U87-MG glioma cells): strongly suppressed; also recorded: amelioration
